Test results reported in the CheMixHub ionic liquid set.
Further values from the same series stand in other lists.

Test: xn = mol fraction of the nth substance listed
Conditions: 101 kPa

CCCCCCCCCCCCOS(=O)(=O)[O-].[Na+] + O
Conditions | electrical conductivity [S/m]
288.15 K, x1 = 7.35e-06 | 0.00102
288.15 K, x1 = 1.463e-05 | 0.00278
288.15 K, x1 = 2.184e-05 | 0.00515
288.15 K, x1 = 2.898e-05 | 0.00708
288.15 K, x1 = 3.604e-05 | 0.00931
288.15 K, x1 = 4.303e-05 | 0.0116
288.15 K, x1 = 4.997e-05 | 0.0139
288.15 K, x1 = 5.683e-05 | 0.0162
288.15 K, x1 = 6.362e-05 | 0.0186
288.15 K, x1 = 7.036e-05 | 0.0202
288.15 K, x1 = 7.703e-05 | 0.0225
288.15 K, x1 = 9.018e-05 | 0.0269
288.15 K, x1 = 9.658e-05 | 0.0286
288.15 K, x1 = 0.0001031 | 0.0307
288.15 K, x1 = 0.0001094 | 0.0328
288.15 K, x1 = 0.0001157 | 0.035
288.15 K, x1 = 0.000122 | 0.037
288.15 K, x1 = 0.0001281 | 0.039
288.15 K, x1 = 0.0001342 | 0.0411
288.15 K, x1 = 0.0001404 | 0.0425
288.15 K, x1 = 0.0001465 | 0.0432
288.15 K, x1 = 0.0001524 | 0.0444
288.15 K, x1 = 0.0001584 | 0.0452
288.15 K, x1 = 0.0001641 | 0.0462
288.15 K, x1 = 0.0001699 | 0.0469
288.15 K, x1 = 0.0001757 | 0.0478
288.15 K, x1 = 0.0001814 | 0.0487
288.15 K, x1 = 0.000187 | 0.0495
288.15 K, x1 = 0.0001928 | 0.0501
288.15 K, x1 = 0.0001982 | 0.0507
288.15 K, x1 = 0.0002038 | 0.0513
288.15 K, x1 = 0.0002092 | 0.0517
288.15 K, x1 = 0.0002147 | 0.0521
288.15 K, x1 = 0.00022 | 0.0527
288.15 K, x1 = 0.0002254 | 0.0532
288.15 K, x1 = 0.0002306 | 0.0537
288.15 K, x1 = 0.0002358 | 0.0542
288.15 K, x1 = 0.0002411 | 0.0548
288.15 K, x1 = 0.0002463 | 0.0554
298.15 K, x1 = 7.35e-06 | 0.00389
298.15 K, x1 = 1.463e-05 | 0.00675
298.15 K, x1 = 2.184e-05 | 0.00896
298.15 K, x1 = 2.898e-05 | 0.0117
298.15 K, x1 = 3.604e-05 | 0.0145
298.15 K, x1 = 4.303e-05 | 0.0171
298.15 K, x1 = 4.997e-05 | 0.0198
298.15 K, x1 = 5.683e-05 | 0.0224
298.15 K, x1 = 6.362e-05 | 0.0244
298.15 K, x1 = 7.036e-05 | 0.027
298.15 K, x1 = 7.703e-05 | 0.0296
298.15 K, x1 = 8.364e-05 | 0.0321
298.15 K, x1 = 9.018e-05 | 0.0347
298.15 K, x1 = 9.658e-05 | 0.0371
298.15 K, x1 = 0.0001031 | 0.0395
298.15 K, x1 = 0.000109 | 0.04113
298.15 K, x1 = 0.0001094 | 0.0419
298.15 K, x1 = 0.0001157 | 0.0442
298.15 K, x1 = 0.0001163 | 0.04369
298.15 K, x1 = 0.000122 | 0.0466
298.15 K, x1 = 0.0001243 | 0.04657
298.15 K, x1 = 0.0001281 | 0.0488
298.15 K, x1 = 0.0001331 | 0.04988
298.15 K, x1 = 0.0001342 | 0.0509
298.15 K, x1 = 0.0001404 | 0.0524
298.15 K, x1 = 0.0001434 | 0.05351
298.15 K, x1 = 0.0001465 | 0.0543
298.15 K, x1 = 0.0001524 | 0.0559
298.15 K, x1 = 0.0001584 | 0.0571
298.15 K, x1 = 0.0001641 | 0.0582
298.15 K, x1 = 0.0001699 | 0.0592
298.15 K, x1 = 0.0001705 | 0.05875
298.15 K, x1 = 0.0001757 | 0.0601
298.15 K, x1 = 0.0001814 | 0.0609
298.15 K, x1 = 0.000187 | 0.0617
298.15 K, x1 = 0.0001881 | 0.06154
298.15 K, x1 = 0.0001928 | 0.0626
298.15 K, x1 = 0.0001982 | 0.0634
298.15 K, x1 = 0.0002038 | 0.0641
298.15 K, x1 = 0.0002092 | 0.0648
298.15 K, x1 = 0.0002099 | 0.06444
298.15 K, x1 = 0.0002147 | 0.0654
298.15 K, x1 = 0.0002199 | 0.06573
298.15 K, x1 = 0.00022 | 0.066
298.15 K, x1 = 0.0002254 | 0.0666
298.15 K, x1 = 0.0002306 | 0.0673
298.15 K, x1 = 0.0002313 | 0.06734
298.15 K, x1 = 0.0002358 | 0.068
298.15 K, x1 = 0.0002411 | 0.0686
298.15 K, x1 = 0.0002463 | 0.0693
298.15 K, x1 = 0.0002578 | 0.07077
298.15 K, x1 = 0.000273 | 0.07281
303.15 K, x1 = 6.546e-05 | 0.02789
303.15 K, x1 = 7.004e-05 | 0.02959
303.15 K, x1 = 7.539e-05 | 0.03194
303.15 K, x1 = 8.11e-05 | 0.03461
303.15 K, x1 = 8.834e-05 | 0.0377
303.15 K, x1 = 9.789e-05 | 0.04133
303.15 K, x1 = 0.0001032 | 0.04357
303.15 K, x1 = 0.0001093 | 0.04602
303.15 K, x1 = 0.0001154 | 0.04858
303.15 K, x1 = 0.0001227 | 0.05146
303.15 K, x1 = 0.0001315 | 0.05499
303.15 K, x1 = 0.000141 | 0.05904
303.15 K, x1 = 0.0001521 | 0.06267
303.15 K, x1 = 0.0001655 | 0.06503
303.15 K, x1 = 0.0001808 | 0.0677
303.15 K, x1 = 0.0001987 | 0.0707
303.15 K, x1 = 0.0002221 | 0.07424
303.15 K, x1 = 0.0002324 | 0.07585
303.15 K, x1 = 0.0002439 | 0.07788
303.15 K, x1 = 0.0002576 | 0.07981
303.15 K, x1 = 0.0002714 | 0.08185
303.15 K, x1 = 0.0002879 | 0.08443
308.15 K, x1 = 7.35e-06 | 0.00521
308.15 K, x1 = 1.463e-05 | 0.0087
308.15 K, x1 = 2.184e-05 | 0.012
308.15 K, x1 = 2.898e-05 | 0.0152
308.15 K, x1 = 3.604e-05 | 0.0186
308.15 K, x1 = 4.303e-05 | 0.0219
308.15 K, x1 = 4.997e-05 | 0.0251
308.15 K, x1 = 5.683e-05 | 0.0283
308.15 K, x1 = 6.047e-05 | 0.02841
308.15 K, x1 = 6.362e-05 | 0.0315
308.15 K, x1 = 6.925e-05 | 0.03246
308.15 K, x1 = 7.036e-05 | 0.0345
308.15 K, x1 = 7.703e-05 | 0.0375
308.15 K, x1 = 8.069e-05 | 0.0378
308.15 K, x1 = 8.364e-05 | 0.0405
308.15 K, x1 = 8.831e-05 | 0.04121
308.15 K, x1 = 9.018e-05 | 0.0432
308.15 K, x1 = 9.658e-05 | 0.0461
308.15 K, x1 = 9.746e-05 | 0.04516
308.15 K, x1 = 0.0001024 | 0.04761
308.15 K, x1 = 0.0001031 | 0.0491
308.15 K, x1 = 0.0001085 | 0.05017
308.15 K, x1 = 0.0001094 | 0.0517
308.15 K, x1 = 0.0001146 | 0.05305
308.15 K, x1 = 0.0001157 | 0.0544
308.15 K, x1 = 0.000122 | 0.0568
308.15 K, x1 = 0.0001281 | 0.0602
308.15 K, x1 = 0.0001306 | 0.0602
308.15 K, x1 = 0.0001342 | 0.0625
308.15 K, x1 = 0.0001398 | 0.06446
308.15 K, x1 = 0.0001404 | 0.0647
308.15 K, x1 = 0.0001465 | 0.0667
308.15 K, x1 = 0.0001512 | 0.06884
308.15 K, x1 = 0.0001524 | 0.0685
308.15 K, x1 = 0.0001584 | 0.0701
308.15 K, x1 = 0.0001641 | 0.0716
